Data: the supplement of paper PMC9927326
MIC of clinical C. albicans isolates, CLSI broth microdilution (ranges and time not stated); higher = less susceptible. Call: susceptible or wild type [S] / resistant or non-wild type [R] by CLSI breakpoints or epidemiological cut-offs; intermediate and dose-dependent carry no call here (the paper groups them with resistant). '<=' and '>=' mark each drug's lowest and highest value, inferred; the source prints them plain. Isolates are numbered anew.

Experiments:
Test in all cases: CLSI broth microdilution.
[1] = compound: CCCCCOc1ccc(-c2cc(-c3ccc(C(=O)N[C@H]4C[C@@H](O)[C@@H](O)NC(=O)[C@@H]5[C@@H](O)[C@@H](C)CN5C(=O)[C@H]([C@H](O)CC(N)=O)NC(=O)[C@H]([C@H](O)[C@@H](O)c5ccc(O)c(OS(=O)(=O)O)c5)NC(=O)[C@@H]5C[C@@H](O)CN5C(=O)[C@H]([C@@H](C)O)NC4=O)cc3)no2)cc1 [micafungin]
[2] = compound: Nc1[nH]c(=O)ncc1F [flucytosine]
[3] = compound: C[C@@H](c1ncncc1F)[C@](O)(Cn1cncn1)c1ccc(F)cc1F [voriconazole]
[4] = compound: CCC(C)n1ncn(-c2ccc(N3CCN(c4ccc(OCC5COC(Cn6cncn6)(c6ccc(Cl)cc6Cl)O5)cc4)CC3)cc2)c1=O [itraconazole]
[5] = compound: OC(Cn1cncn1)(Cn1cncn1)c1ccc(F)cc1F [fluconazole]
[6] = compound: CC[C@H](C)C[C@H](C)CCCCCCCCC(=O)N[C@H]1C[C@@H](O)[C@@H](NCCN)NC(=O)[C@@H]2[C@@H](O)CCN2C(=O)[C@H]([C@H](O)CCN)NC(=O)[C@H]([C@H](O)[C@@H](O)c2ccc(O)cc2)NC(=O)[C@@H]2C[C@@H](O)CN2C(=O)[C@H]([C@@H](C)O)NC1=O [caspofungin]
[7] = compound: CCCCCOc1ccc(-c2ccc(-c3ccc(C(=O)N[C@H]4C[C@@H](O)[C@@H](O)NC(=O)[C@@H]5[C@@H](O)[C@@H](C)CN5C(=O)[C@H]([C@@H](C)O)NC(=O)[C@H]([C@H](O)[C@@H](O)c5ccc(O)cc5)NC(=O)[C@@H]5C[C@@H](O)CN5C(=O)[C@H]([C@@H](C)O)NC4=O)cc3)cc2)cc1 [anidulafungin]
[8] = compound: C[C@@H]1[C@H](O)[C@@H](C)/C=C/C=C/C=C/C=C/C=C/C=C/C=C/[C@H](O[C@@H]2O[C@H](C)[C@@H](O)[C@H](N)[C@@H]2O)C[C@@H]2O[C@](O)(C[C@@H](O)C[C@@H](O)[C@H](O)CC[C@@H](O)C[C@@H](O)CC(=O)O[C@H]1C)C[C@H](O)[C@H]2C(=O)O [amphotericin B]
[9] = compound: CC[C@@H]([C@H](C)O)n1ncn(-c2ccc(N3CCN(c4ccc(OC[C@@H]5CO[C@@](Cn6cncn6)(c6ccc(F)cc6F)C5)cc4)CC3)cc2)c1=O [posaconazole]

Row | Test System | MIC [1] | MIC [2] | MIC [3] | MIC [4] | MIC [5] | MIC [6] | MIC [7] | MIC [8] | MIC [9]
1 | Candida albicans isolate 200 (Erg11p: V437I,E266D, Fur1p: WT, Tac1p: C908Y,N896S) | 0.015 mg/L [S] | ≤ 0.06 mg/L [S] | ≤ 0.008 mg/L [S] | 0.03 mg/L [S] | 0.25 mg/L [S] | 0.03 mg/L [S] | ≤ 0.015 mg/L [S] | 0.5 mg/L [S] | 0.015 mg/L [S]
2 | Candida albicans isolate 319 (Erg11p: D153E, Fur1p: WT, Tac1p: N896S) | 0.015 mg/L [S] | 0.12 mg/L [S] | ≤ 0.008 mg/L [S] | 0.03 mg/L [S] | 0.5 mg/L [S] | 0.06 mg/L [S] | 0.06 mg/L [S] | 0.5 mg/L [S] | 0.03 mg/L [S]
3 | Candida albicans isolate 4 (Erg11p: V488I,E266D, Fur1p: WT, Tac1p: N896S,I895T) | ≤ 0.008 mg/L [S] | ≤ 0.06 mg/L [S] | ≤ 0.008 mg/L [S] | 0.06 mg/L [S] | 0.5 mg/L [S] | 0.03 mg/L [S] | 0.06 mg/L [S] | 0.25 mg/L [S] | 0.015 mg/L [S]
4 | Candida albicans isolate 159 (Erg11p: WT, Fur1p: WT, Tac1p: N896S) | ≤ 0.008 mg/L [S] | ≤ 0.06 mg/L [S] | ≤ 0.008 mg/L [S] | 0.03 mg/L [S] | 0.25 mg/L [S] | 0.015 mg/L [S] | ≤ 0.015 mg/L [S] | 0.5 mg/L [S] | 0.015 mg/L [S]
5 | Candida albicans isolate 43 (Erg11p: V488I,E266D, Fur1p: WT, Tac1p: N896S,I895T) | 0.015 mg/L [S] | 0.12 mg/L [S] | ≥ 8 mg/L [R] | ≥ 16 mg/L [R] | 32 mg/L [R] | 0.03 mg/L [S] | ≤ 0.015 mg/L [S] | 0.5 mg/L [S] | 0.06 mg/L [S]
6 | Candida albicans isolate 67 (Erg11p: WT, Fur1p: WT, Tac1p: N896S) | 0.015 mg/L [S] | ≤ 0.06 mg/L [S] | ≤ 0.008 mg/L [S] | 0.06 mg/L [S] | 0.5 mg/L [S] | 0.03 mg/L [S] | 0.03 mg/L [S] | 0.25 mg/L [S] | 0.03 mg/L [S]
7 | Candida albicans isolate 308 (Erg11p: WT, Fur1p: WT, Tac1p: N896S) | ≤ 0.008 mg/L [S] | ≤ 0.06 mg/L [S] | ≤ 0.008 mg/L [S] | 0.06 mg/L [S] | 0.25 mg/L [S] | 0.03 mg/L [S] | 0.03 mg/L [S] | 0.5 mg/L [S] | 0.015 mg/L [S]
8 | Candida albicans isolate 281 (Erg11p: WT, Fur1p: WT, Tac1p: N896S,C858Y,N823K,I558V,F189S) | 0.015 mg/L [S] | ≤ 0.06 mg/L [S] | ≤ 0.008 mg/L [S] | 0.06 mg/L [S] | 0.5 mg/L [S] | 0.03 mg/L [S] | 0.03 mg/L [S] | 0.5 mg/L [S] | 0.03 mg/L [S]
9 | Candida albicans isolate 327 (Erg11p: V488I,E266D, Fur1p: A6V, Tac1p: N896S) | 0.015 mg/L [S] | ≤ 0.06 mg/L [S] | ≤ 0.008 mg/L [S] | 0.06 mg/L [S] | 0.5 mg/L [S] | 0.03 mg/L [S] | 0.03 mg/L [S] | 0.5 mg/L [S] | 0.03 mg/L [S]
10 | Candida albicans isolate 57 (Erg11p: V488I,T486I,E266D, Fur1p: WT, Tac1p: N896S,I558V,A377V,F189S,N174D,M170I,K87N) | 0.015 mg/L [S] | ≤ 0.06 mg/L [S] | ≤ 0.008 mg/L [S] | ≤ 0.015 mg/L [S] | 0.25 mg/L [S] | 0.06 mg/L [S] | 0.03 mg/L [S] | 0.25 mg/L [S] | 0.015 mg/L [S]
11 | Candida albicans isolate 260 (Erg11p: E266D, Fur1p: WT, Tac1p: C908Y,A377V,N174D,M170I,I109N,K87N) | 0.015 mg/L [S] | ≤ 0.06 mg/L [S] | ≤ 0.008 mg/L [S] | 0.03 mg/L [S] | 0.5 mg/L [S] | 0.03 mg/L [S] | 0.03 mg/L [S] | 0.25 mg/L [S] | 0.015 mg/L [S]
12 | Candida albicans isolate 37 (Erg11p: E266D, Fur1p: WT, Tac1p: N896S,I558V,A377V,F189S,N174D,M170I,K87N) | 0.015 mg/L [S] | ≤ 0.06 mg/L [S] | 0.015 mg/L [S] | 0.03 mg/L [S] | 1 mg/L [S] | 0.03 mg/L [S] | ≤ 0.015 mg/L [S] | 0.25 mg/L [S] | 0.03 mg/L [S]
13 | Candida albicans isolate 345 (Erg11p: WT, Fur1p: WT, Tac1p: I558V,A377V,F189S,N174D,M170I,K87N) | 0.015 mg/L [S] | ≤ 0.06 mg/L [S] | ≤ 0.008 mg/L [S] | 0.03 mg/L [S] | 0.25 mg/L [S] | 0.03 mg/L [S] | ≤ 0.015 mg/L [S] | 0.5 mg/L [S] | 0.03 mg/L [S]
14 | Candida albicans isolate 167 (Erg11p: E266D, Fur1p: WT, Tac1p: N896S,M170V,S108N) | 0.015 mg/L [S] | ≤ 0.06 mg/L [S] | ≤ 0.008 mg/L [S] | 0.03 mg/L [S] | 0.25 mg/L [S] | 0.03 mg/L [S] | 0.06 mg/L [S] | 0.25 mg/L [S] | 0.015 mg/L [S]
15 | Candida albicans isolate 217 (Erg11p: E266D, Fur1p: WT, Tac1p: N896S,I558V,A377V,F189S,N174D,M170I,K87N) | 0.015 mg/L [S] | 0.25 mg/L [S] | 0.5 µg/mL | 0.12 mg/L [S] | 4 µg/mL | 0.03 mg/L [S] | ≤ 0.015 mg/L [S] | 0.5 mg/L [S] | 0.06 mg/L [S]
16 | Candida albicans isolate 110 (Erg11p: V437I,E266D, Fur1p: WT, Tac1p: T885K,R869Q,T782A,I558V,A377V,T353S,F189S,M170V) | ≤ 0.008 mg/L [S] | ≤ 0.06 mg/L [S] | 0.015 mg/L [S] | 0.12 mg/L [S] | 1 mg/L [S] | 0.03 mg/L [S] | ≤ 0.015 mg/L [S] | 0.5 mg/L [S] | 0.03 mg/L [S]
